# Reference: PubChem BioAssay (NCATS)
# Several values for one entry are separate records, joined by “and”; a condition that tells them apart may be missing. Equal values may be shown once. The inconclusive results got no clear call from the source; some entries with a clear call stand among them for comparison. For part of these data: A potency beside an inconclusive call is a rough fit, not a confirmed value. More than one record can exist for a structure, and the calls need not agree. Activity calls are given as the source filed them. Calls follow the shape of the dose curve; as a rule, active = well fitted curve in the direction sought with a large enough effect; inconclusive = small, poorly fitted or top-dose-only effect, or another doubt; inactive = no such curve, though single readings can be large; an effect the other way counts as inactive or inconclusive.
# What was measured:
# HEK293 = assay: Cytotoxic Profiling of Annotated Libraries Using Quantitative High-Throughput Screening (AID 1296008); conditions: Five cell lines viability, CellTiter-Glo ATP luminescence, 48-72 h; max response: active compounds read low; also: nearly all actives have a fitted effect of over 60% in size; also: potency is read from the fitted curve at half-maximal effect; as to max response: % is scaled to controls: 0 for no effect and ±100 for the full control effect
# Summary of the method: (§1)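 Cells exposed to compounds for 48 or 72 hr at 37 degrees Celsius. Viability read as ATP-coupled luminescence with CellTiter-Glo after 10 min at room temperature.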
# CRL-7250 = normal cell line; assay: as above; conditions: Five cell lines viability, CellTiter-Glo ATP luminescence, 48-72 h; max response: active compounds read low
# Summary of the method: as §1
# C33A = assay: Primary qHTS to identify gynecologic anti-cancer compounds using libraries of approved drugs and bioactive compounds (AID 1345084); conditions: Gynecologic cancer cell panel viability, ATPlite luminescence, 48 h; series mostly up to 57.5 µM; also: nearly all actives have a fitted effect of over 55% in size; also: potency is read from the fitted curve at half-maximal effect; as to activity change, negative = cytotoxicity: % is scaled to controls: 0 for no effect and ±100 for the full control effect
# Summary of the method: (§2)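 Luminescence from the ATPlite ATP-monitoring reagent indicates viable cell number; lower signal means cytotoxicity. Cells received compound 16 h after seeding and were exposed for 48 h across five concentrations.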
# HaCat = assay: Cytotoxic Profiling of Annotated Libraries Using Quantitative High-Throughput Screening (AID 1296008); conditions: Five cell lines viability, CellTiter-Glo ATP luminescence, 48-72 h; max response: active compounds read low; also: nearly all actives have a fitted effect of over 60% in size; also: potency is read from the fitted curve at half-maximal effect
# Summary of the method: as §1
# NIH3T3 = assay: as above; conditions: Five cell lines viability, CellTiter-Glo ATP luminescence, 48-72 h; max response: active compounds read low
# Summary of the method: as §1
# MCC-13 = assay: qHTS assay to identify novel small-molecules to repurpose for Merkel cell carcinoma treatment (AID 1296009); conditions: MCC and control cell lines, CellTiter-Glo viability, 72 h; series mostly up to 46 µM; also: nearly all actives have a fitted effect of over 60% in size; also: potency is read from the fitted curve at half-maximal effect
# Summary of the method: (§3)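 Cells were treated for 72 hr at 37 degree celsius with compounds in 8- or 11-point dose response. Viability was read by CellTiter-Glo luminescence, normalized to no-cell (cytotoxicity) and DMSO controls.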
# MCC-26 = assay: as above; conditions: MCC and control cell lines, CellTiter-Glo viability, 72 h; series mostly up to 46 µM
# Summary of the method: as §3
# MKL-1 = assay: as above; conditions: MCC and control cell lines, CellTiter-Glo viability, 72 h; series mostly up to 46 µM
# Summary of the method: as §3
# MKL-2 = assay: as above; conditions: MCC and control cell lines, CellTiter-Glo viability, 72 h; series mostly up to 46 µM
# Summary of the method: as §3
# CASKI = assay: Primary qHTS to identify gynecologic anti-cancer compounds using libraries of approved drugs and bioactive compounds (AID 1345084); conditions: Gynecologic cancer cell panel viability, ATPlite luminescence, 48 h; activity change, negative = cytotoxicity: at 57.5 µM (top of the series); also: nearly all actives have a fitted effect of over 55% in size; also: potency is read from the fitted curve at half-maximal effect; as to activity change, negative = cytotoxicity: % is scaled to controls: 0 for no effect and ±100 for the full control effect
# Summary of the method: as §2
# Es-2 = assay: as above; conditions: Gynecologic cancer cell panel viability, ATPlite luminescence, 48 h; series mostly up to 57.5 µM
# Summary of the method: as §2
# HeLa = assay: as above; conditions: Gynecologic cancer cell panel viability, ATPlite luminescence, 48 h; series mostly up to 57.5 µM
# Summary of the method: as §2
# WaGa = assay: qHTS assay to identify novel small-molecules to repurpose for Merkel cell carcinoma treatment (AID 1296009); conditions: MCC and control cell lines, CellTiter-Glo viability, 72 h; series mostly up to 46 µM; also: nearly all actives have a fitted effect of over 60% in size; also: potency is read from the fitted curve at half-maximal effect
# Summary of the method: as §3
# [1] = Drug repurposing screens with cells derived from glioblastoma tumor samples (AID 1345199); conditions: GBM patient neurospheres viability, ATP luminescence, 48 h; Potency: tumour line A unless noted; activity, negative = cell killing: at 46 µM (top of the series), tumour line A unless noted; also: potency is read from the fitted curve at half-maximal effect; nearly all actives have a fitted effect of over 40% in size
# Summary of the method: (§4)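 Four patient lines of CD133+ GBM neurospheres were screened at several concentrations; hits were retested in those lines plus three slower-growing GBM lines, using 48-hour treatment and ATP-based viability.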
# astro = assay: as above; conditions: viability, ATP luminescence, 48 h; activity, negative = cell killing: at 45.9 µM (top of the series)
# Summary of the method: as §4
# CAOV3 = assay: Primary qHTS to identify gynecologic anti-cancer compounds using libraries of approved drugs and bioactive compounds (AID 1345084); conditions: Gynecologic cancer cell panel viability, ATPlite luminescence, 48 h; series mostly up to 57.5 µM; also: nearly all actives have a fitted effect of over 55% in size; also: potency is read from the fitted curve at half-maximal effect; as to activity change, negative = cytotoxicity: % is scaled to controls: 0 for no effect and ±100 for the full control effect
# Summary of the method: as §2
# UISO = assay: qHTS assay to identify novel small-molecules to repurpose for Merkel cell carcinoma treatment (AID 1296009); conditions: MCC and control cell lines, CellTiter-Glo viability, 72 h; series mostly up to 46 µM; also: nearly all actives have a fitted effect of over 60% in size; also: potency is read from the fitted curve at half-maximal effect
# Summary of the method: as §3
# KB-3-1 = assay: Cytotoxic Profiling of Annotated Libraries Using Quantitative High-Throughput Screening (AID 1296008); conditions: Five cell lines viability, CellTiter-Glo ATP luminescence, 48-72 h; max response: active compounds read low; also: nearly all actives have a fitted effect of over 60% in size; also: potency is read from the fitted curve at half-maximal effect
# Summary of the method: as §1
# [2] = qHTS assay to identify inhibitors of the type 1 interferon - major histocompatibility complex class I in skeletal muscle: Counter screen cell viability and HiBit confirmation (AID 1347412); conditions: iHSKM muscle cells + IFN-b, HiBiT or CellTiter-Glo, 24 h
# Summary of the method: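 Duplicate plates, pinned identically: one read for HiBiT-tagged endogenous HLA-B luminescence, the other for ATP-content viability via CellTiter Glo. Cells were genome-engineered human myoblasts given 4 ng/ml IFN-b; compounds 12-pt, 1:3 from 46 uM final; 24 hr exposure.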
# W2 = assay: qHTS profiling for inhibitors of Plasmodium falciparum proliferation (AID 504749); conditions: P. falciparum in erythrocytes, SYBR Green DNA, 72 h; series mostly up to 28.7 µM
# Summary of the method: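 P. falciparum-infected erythrocytes (0.3% parasitemia, 2.5% hematocrit) incubated with compound 72 h at 37 C, 5% CO2. Parasite DNA detected by SYBR Green after lysis, overnight at room temperature; normalised to 0.29 uM artemisinin and DMSO.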
# Tags tell the direction and shape of the fitted curve.
structure (smiles),measurement,setting,value
Cc1ccccc1C(=O)Nc1ccc(C(=O)N2CCCC(O)c3cc(Cl)ccc32)c(C)c1 (stereo unspecified),Potency,HEK293,"inconclusive: 18.8 µM [inhibitor, partial curve]"
O=C1OC2(c3ccccc31)c1cc(Br)c(O)c(Br)c1Oc1c2cc(Br)c(O)c1Br,Potency,CRL-7250,"inconclusive: 15 µM [inhibitor, partial curve]"
same,Potency,C33A,inactive
COc1ccc(S(=O)(=O)Nc2cccnc2Nc2ccc(O)cc2)cc1,Potency,HEK293,active: 0.935 µM
same,Potency,HaCat,active: 20.9 µM
same,max response,HaCat,inactive: -5.46%
same,Potency,NIH3T3,"inconclusive: 935 nM [inhibitor, full curve] and inconclusive: 651 nM [inhibitor, full curve]"
same,Potency,MCC-13,active: 3.72 µM
same,Potency,MCC-26,"inconclusive: 1.87 µM [inhibitor, full curve]"
same,Potency,MKL-1,"inconclusive: 2.64 µM [inhibitor, full curve]"
same,Potency,MKL-2,"inconclusive: 1.87 µM [inhibitor, full curve]"
same,Potency,C33A,active: 8.91 µM
same,Potency,CASKI,"inconclusive: 3.16 µM [cytotoxic, full curve, poor fit]"
same,Potency,Es-2,active: 2.24 µM
same,Potency,HeLa,active: 1.78 µM
Cc1ccc(C(=O)C(C)CN2CCCCC2)cc1 (stereo unspecified),Potency,HEK293,"inconclusive: 23.1 µM [inhibitor, single point]"
same,max response,HEK293,inactive: 0.201%
same,Potency,WaGa,"inconclusive: 26.6 µM [inhibitor, single point]"
same,Potency,[1],"inconclusive: 12.6 µM [inhibitor, partial curve] and inconclusive: 35.5 µM [inhibitor, single point]"
C#C[C@]1(O)CC[C@H]2[C@@H]3CCC4=C/C(=N/O)CC[C@@H]4[C@H]3CC[C@@]21CC,max response,CRL-7250,inactive: 4.4%
same,Potency,astro,active: 20 µM
same,Potency,C33A,"inconclusive: 22.4 µM [rising, single point]"
same,Potency,CASKI,"inconclusive: 7.94 µM [rising, single point]"
COc1ccc(C[C@H](N)C(=O)N[C@H]2[C@@H](O)[C@H](n3cnc4c(N(C)C)ncnc43)O[C@@H]2CO)cc1,Potency,CRL-7250,active: 0.92 µM
same,Potency,CAOV3,active: 1.12 µM
same,Potency,CASKI,active: 1.58 µM
same,Potency,HeLa,active: 2 µM
OCCN1CCN(CCCN2c3ccccc3Sc3ccc(Cl)cc32)CC1,Potency,CRL-7250,"inconclusive: 33.5 µM [inhibitor, single point]"
same,Potency,MCC-13,"inconclusive: 26.6 µM [inhibitor, single point]"
same,Potency,MKL-2,"inconclusive: 18.8 µM [inhibitor, single point]"
same,Potency,UISO,active: 26.6 µM
same,Potency,astro,"inconclusive: 7.94 µM [inhibitor, partial curve]"
same,Potency,C33A,active: 20 µM
same,Potency,CAOV3,active: 25.1 µM
same,Potency,CASKI,active: 25.1 µM
same,Potency,Es-2,"inconclusive: 39.8 µM [cytotoxic, single point]"
COC(=O)c1ccc(O)cc1,max response,CRL-7250,inactive: 1%
same,Potency,MCC-13,inactive
same,Potency,[1],"inconclusive: 100 nM [inhibitor, full curve, poor fit]"
COc1ccc(CCC(=O)Nc2nc3ccc(Cl)cc3s2)cc1OC,Potency,HEK293,"inconclusive: 29.1 µM [inhibitor, single point]"
same,max response,HEK293,inactive: -26%
same,max response,KB-3-1,inactive: -8.12% and inactive: -15.4%
same,Potency,MKL-1,inactive
same,Potency,Es-2,inactive
Cn1c(=O)c(-c2c(Cl)cccc2Cl)cc2cnc(Nc3cccc(C(=O)O)c3)nc21,Potency,CRL-7250,"inconclusive: 33.2 µM [inhibitor, single point]"
same,Potency,MCC-13,inactive
CC(C)Oc1cc(Nc2nc(N[C@@H](C)c3ccc(F)cn3)ncc2Cl)[nH]n1,Potency,HEK293,"inconclusive: 8.33 µM [inhibitor, full curve]"
same,Potency,KB-3-1,active: 10.5 µM
same,Potency,MCC-13,"inconclusive: 18.7 µM [inhibitor, partial curve, poor fit]"
same,Potency,MCC-26,active: 14.8 µM
same,Potency,UISO,"inconclusive: 2.64 µM [inhibitor, partial curve]"
same,Potency,WaGa,"inconclusive: 16.6 µM [inhibitor, partial curve, poor fit]"
same,Potency,[2]; HiBiT,active: 9.91 µM
same,Potency,[2]; Viability,"inconclusive: 9.91 µM [cytotoxic, partial curve]"
CCN1CCN(Cc2ccc(-c3cc4c(N[C@H](C)c5ccccc5)ncnc4[nH]3)cc2)CC1,Potency,HEK293,"inconclusive: 37.2 µM [inhibitor, single point]"
same,Potency,HaCat,active: 1.48 µM
same,Potency,MCC-13,active: 4.18 µM
same,Potency,MCC-26,active: 0.743 µM
same,Potency,MKL-1,"inconclusive: 0.0148 µM [inhibitor, full curve, poor fit]"
same,Potency,[2]; Viability,"inconclusive: 44.3 µM [cytotoxic, single point]"
Nc1ccc(C(=O)NCC(=O)O)cc1,Potency,W2,inactive
same,max response,HEK293,inactive: 0.145%
same,max response,KB-3-1,inactive: 28.3%
same,Potency,MCC-13,"inconclusive: 5.96 µM [inhibitor, single point]"
same,Potency,[1],"inconclusive: 6.2 nM [inhibitor, full curve, poor fit] [tumour line C]"
same,Potency,CASKI,inactive
